Counter-ions that a name gives are not always drawn. This is one part of the list. Most values come without repeats; read them as rough. A value given as a limit tells only on which side of the number the result lay.

We go through eleven compounds from the supplement of paper PMC7266297.
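Also: Read-out is SRB optical density at 490 nm, with the control being wells given 0.5% DMSO vehicle, and compound added one day after cells were plated.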

The experiment has as its system KB-3-1. The experiment is described as follows: growth inhibition relative to DMSO control (SRB); cervical cancer cells: KB-3-1 is the parent and KB-V1 overexpresses MDR1; SRB is the sulforhodamine B stain; higher = more growth inhibition. The conditions noted are these: 1 µM; 72 h.
`C[N+]1(C)[C@@H]2C[C@@H](OC(=O)C(O)(c3cccs3)c3cccs3)C[C@H]1[C@@H]1O[C@@H]12` [Tiotropium Bromide hydrate]: the growth inhibition came out at 24.2%.
As to `CCN(CC)Cc1ccc2cc(COC(=O)Nc3ccc(C(=O)NO)cc3)ccc2c1` [Givinostat (ITF2357)], the growth inhibition stood at 93.9%.
As for `CC[C@@H](C)Nc1cc(C(=O)N[C@H]2C[C@H]3CC[C@@H](C2)N3c2ccc(C(=O)C3CC3)cn2)c(C)cc1C(N)=O`, the figure is 73%; as for `CCc1nc(N)nc(N)c1-c1ccc(Cl)cc1` [Pyrimethamine], 38.5%.
The figure for `CC(C)OC(=O)OCOP(=O)(CO[C@H](C)Cn1cnc2c(N)ncnc21)OCOC(=O)OC(C)C` [Tenofovir Disoproxil Fumarate] is 16.9%; for `CN(C)CCCCC(=O)Nc1ccc(NC(=S)NC(=O)c2ccc(C(C)(C)C)cc2)cc1` [Tenovin-6] it is 32.8%.
The figure for `O=C(NNc1ccccc1)c1ccncc1` is 37.2%; for `CC[C@H]1OC(=O)[C@H](C)[C@@H](O[C@H]2C[C@@](C)(OC)[C@@H](O)[C@H](C)O2)[C@H](C)[C@@H](O[C@@H]2O[C@H](C)C[C@H](N(C)C)[C@H]2O)[C@](C)(OC)C[C@@H](C)C(=O)[C@H](C)[C@@H](O)[C@]1(C)O` [Clarithromycin] it is 30.4%.
In turn, `CCc1cncnc1N1CCN(Cc2nc3ccc(C(F)(F)F)cc3[nH]2)CC1` displayed a growth inhibition of 87.9%.
As for `Cc1ccc(Nc2nccc(N(C)c3ccc4c(C)n(C)nc4c3)n2)cc1S(N)(=O)=O` [Pazopanib], the figure is < 0%; as for `CCc1c(O)cc(O)c(C(=O)c2ccc(OCCN3CCOCC3)c(OC)c2)c1CC(=O)N(CCOC)CCOC`, < 0%.
